The list shows a part of the results. At the low end of the ranking the order means little.

The test deals with MYC (p64) + MAX (p21), in MYC:MAX. Kind of test: protein-binding microarray (anti-MAX antibody). The note with it: PBM: 15 mM Tris-HCl pH 7.5, 100 mM KCl, 0.075% NP40, 7.5 mM beta-mercaptoethanol, 375 ng/ul BSA, 8 ng/ul poly(dA-dT):(dA-dT), 550 ng complex, 60 min, room …; high values mean tight binding; double strand, one strand shown; sequences stand for … in CCGGC…TTAATAGCTAAGATTACTATATCGACG
Regarding TGACGTCTGGTA, the binding signal (log2 normalized fluorescence) was 0.0941. As for TGACACGGATTA, the binding signal (log2 normalized fluorescence) was found to be 0.193.

Turning to TGAAACATAGTA, the binding signal (log2 normalized fluorescence) is -0.0101. To TGAAGGCGGGTA belongs 0.0594; to TGATTCTGAGTA, -0.287; to TGATCCATAGTA, -0.0476. To TGATATGCCGTA belongs 0.0609. In the case of AGTCACATGGTA, the binding signal (log2 normalized fluorescence) is 0.995. To TTCTACGTGGTA belongs 0.444; to TGACGATTTGTA, 0.1. The value for TGACGCAGCGTA was 0.178; that for TGATTCCGCGTA was -0.0293. On to TGACACCAAGTA, for which the binding signal (log2 normalized fluorescence) came out at 0.0437. For TGAATGATAGTA, the binding signal (log2 normalized fluorescence) stood at 0.131.

On to TGAAAATTGGTA, for which the binding signal (log2 normalized fluorescence) was -0.193. The value for TGACACTAGGTA was 0.221. The value for TGATTAACGGTA was -0.00324; that for TGAGCGTGGGTA was 0.524; that for GGACACGTGTGA was 0.779.

Take TGAGGGGGGGTA: the binding signal (log2 normalized fluorescence) is 0.784.

Turning to TGAGTTCACGTA, the binding signal (log2 normalized fluorescence) is 0.0567. Regarding TAACACGTGGAA, the binding signal (log2 normalized fluorescence) was determined as 0.812. To TGATTGGTTGTA belongs -0.0476. The value for TGACCAACCGTA was 0.0787. To TGAGCTTGAGTA belongs -0.0837.

Turning to TGAGCAGTGGTA, the binding signal (log2 normalized fluorescence) was -0.00429. The value for TGATATTTAGTA was -0.226; that for TGACACGTGGGT was 0.725. To TGAAGGGTAGTA belongs -0.19; to TGAACACTAGTA, 0.244; to TGATATGTAGTA, -0.158. The value for TGACGAGTCGTA was 0.271; that for TGAACCGCTGTA was 0.0828. For TGACGGCTCGTA, the binding signal (log2 normalized fluorescence) was -0.157. To TGACAGCATGTA belongs 0.547. On to TGAGTTAGAGTA, for which the binding signal (log2 normalized fluorescence) was -0.335.

For the sequence TGATAGGGTGTA, the binding signal (log2 normalized fluorescence) is -0.0201. The value for TGACTAGCTGTA was -0.0161; that for TGAGGCGATGTA was 0.183; that for TGAATATCTGTA was -0.113. The value for TGAGGGCTCGTA was -0.0239; that for TGAGACGCGGTA was 0.217.

Regarding TGAGTGCGTGTA, the binding signal (log2 normalized fluorescence) came to 0.518. To TGACAAGGAGTA belongs 0.244; to TGACCTTGCGTA, 0.232; to TGACAAGTGGTT, 0.235. The value for TGACCCTAAGTA was -0.0394; that for TGAGTCCACGTA was 0.214; that for TGAGCAGGTGTA was 0.313.

As for TGAGTACAAGTA, the binding signal (log2 normalized fluorescence) was found to be 0.0729.

On to TGGCACAAGGTA, for which the binding signal (log2 normalized fluorescence) was 0.389. The value for TGATGGCGGGTA was 0.232; that for TGACTCCGCGTA was 0.24. In the case of TGATCCCGGGTA, the binding signal (log2 normalized fluorescence) was found to be 0.0486. As to TGAGAACGCGTA, the binding signal (log2 normalized fluorescence) came out at 0.268. In the case of TGAGACAGGGTA, the binding signal (log2 normalized fluorescence) is -0.0086. The value for TGAATAGCTGTA was -0.072. To TGAGGATGTGTA belongs -0.01. The value for TGAATTCTCGTA was -0.00607. Consider TGATGGATAGTA, for which the binding signal (log2 normalized fluorescence) worked out at 0.0458. To TGATAGGGAGTA belongs -0.118; to TGAGCCATCGTA, 0.0938.

For the sequence TGATGCTCGGTA, the binding signal (log2 normalized fluorescence) is 0.254. To TGAGTGTTTGTA belongs 0.0241; to TGAAGTGACGTA, 0.204; to TGAGCAGATGTA, 0.417. To TGAACCTCGGTA belongs 0.0976; to TGATTAAGTGTA, -0.0933; to TGGACCGTGGTA, 0.269. To TGATAGAGTGTA belongs -0.0737; to TGATGGGTGGTA, 0.276. Consider TGACACTTCGTC, for which the binding signal (log2 normalized fluorescence) was 0.129. The value for TGATCTTACGTA was 0.0273; that for TGATGAAAAGTA was 0.0763; that for TGAAGCGTGTTA was 0.719. In the case of TCACACGTGGTA, the binding signal (log2 normalized fluorescence) turned out to be 0.998. To TGATCTGCGGTA belongs 0.0671; to TGACCCCAAGTA, 0.0379; to GGACTCGTGGTA, 0.577. The value for TGAGTTCCGGTA was -0.0712; that for TGAGACGTGATA was 0.339.

As to TGAGCTAACGTA, the binding signal (log2 normalized fluorescence) was -0.00828. On to TGACAATCCGTA, for which the binding signal (log2 normalized fluorescence) worked out at 0.143. To TGAAACGCAGTA belongs 0.155. To TGAGCGATGGTA belongs -0.0926; to TGAAAGCTTGTA, -0.0546.

For the sequence TGAAGGCAGGTA, the binding signal (log2 normalized fluorescence) was -0.0834.

Regarding TGAGGATAGGTA, the binding signal (log2 normalized fluorescence) is -0.0864. To TGAAGCTTTGTA belongs 0.0469. To TGATTAGCAGTA belongs -0.255.

In the case of TGAATTCCAGTA, the binding signal (log2 normalized fluorescence) was 0.0106.

Turning to TGAACTAAAGTA, the binding signal (log2 normalized fluorescence) was -0.027. On to AGATTTCGGACA, for which the binding signal (log2 normalized fluorescence) was -0.0672.

Consider TGAAGCCACGTA, for which the binding signal (log2 normalized fluorescence) turned out to be 0.19. To TGAGTTGGAGTA belongs -0.241; to TGACACCTGGAA, 0.355; to TGACAGGTGCTG, 0.49. In the case of TGACGTCTCGTA, the binding signal (log2 normalized fluorescence) was 0.0793. The value for TGACACGGTATA was 0.377. As for TGAATCTAGGTA, the binding signal (log2 normalized fluorescence) is 0.163. To TGAATCCTAGTA belongs -0.0848. Take AGACACGCAGTA: the binding signal (log2 normalized fluorescence) was 0.352.

On to CAAATGAGAGCC, for which the binding signal (log2 normalized fluorescence) amounted to 0.034.

For TGACAGATAGTA, the binding signal (log2 normalized fluorescence) worked out at 0.0298. The value for TGATCGATCGTA was -0.0866; that for TGAAGATGTGTA was 0.0913.

TGACTGGGGGTA: the binding signal (log2 normalized fluorescence) worked out at 0.49. The value for TGAAATTACGTA was 0.142; that for TGATCGTCAGTA was 0.103; that for TGACCAGAGGTA was 0.0255. To TGAGATTGGGTA belongs -0.291; to TTACACGTTGTC, 0.589; to TGACGTCCTGTA, 0.133. For TGACACTTGGCA, the binding signal (log2 normalized fluorescence) stood at 0.277. As for TGATGGCAAGTA, the binding signal (log2 normalized fluorescence) came to 0.167.

On to TGAGGATTAGTA, for which the binding signal (log2 normalized fluorescence) is -0.0726. The value for TGACTTTGTGTA was 0.0708; that for TGAGTGGATGTA was 0.221.

For TGAGTGAGGGTA, the binding signal (log2 normalized fluorescence) came to 0.097. For the sequence TGACTTTCTGTA, the binding signal (log2 normalized fluorescence) was -0.0198. To TGAGTACTCGTA belongs 0.116. The value for TGACGCGTGGCA was 0.655; that for TGATCTTCCGTA was -0.00711.

On to TGAGGCACGGTA, for which the binding signal (log2 normalized fluorescence) worked out at 0.25. To TGAAGCACTGTA belongs 0.197. Regarding TGACCAACTGTA, the binding signal (log2 normalized fluorescence) is 0.0767. To TGAGGTCAAGTA belongs -0.156; to TGAAAAGCCGTA, -0.118. The value for TGAGCCGATGTA was -0.151; that for GTCTCAATTATA was -0.0911. Take TGAAAACTCGTA: the binding signal (log2 normalized fluorescence) came out at 0.171. With TGACCTGGGGTA, the binding signal (log2 normalized fluorescence) is 0.223. The value for TGACCCGCAGTA was 0.0933; that for TGAGCATCGGTA was -0.05; that for TGATGGCGCGTA was 0.191. The value for TGACTCCTGGTA was 0.147; that for TGAGTGCTTGTA was 0.125. To TGAAACGGGGTA belongs 0.292; to TGATTAGGCGTA, -0.145; to TGATAAGTGGTA, -0.0234. Consider TGACACCTTGTA, for which the binding signal (log2 normalized fluorescence) came out at 0.346. To TGATACTCTGTA belongs 0.0392. To TGAACTATCGTA belongs 0.0955; to TGACGATCGGTA, -0.0724. The value for TGAATCAACGTA was 0.211; that for AGGCACGTGGTA was 0.815; that for TGAGTATTCGTA was -0.242. Turning to TGATAATGGGTA, the binding signal (log2 normalized fluorescence) was 0.0617. Consider TGAAAGGAAGTA, for which the binding signal (log2 normalized fluorescence) was -0.0971. To TGAAGAGATGTA belongs 0.0426; to GGACAAGTGGTC, 0.441. The value for TGAGACCGAGTA was 0.0907; that for TGATAATCGGTA was -0.119; that for TGATCATACGTA was 0.177. To TGACAATAGGTA belongs 0.183; to TGAGACAGCGTA, 0.087. In the case of TGACGTTTAGTA, the binding signal (log2 normalized fluorescence) was determined as 0.000463. The value for TGACGCTGGGTA was -0.0999. In the case of TAACACAAGGTA, the binding signal (log2 normalized fluorescence) was 0.534. Turning to TGATACATTGTA, the binding signal (log2 normalized fluorescence) came out at 0.066. As to TGACAGGTTGTA, the binding signal (log2 normalized fluorescence) was determined as 0.252.

For the sequence TGAACTCCGGTA, the binding signal (log2 normalized fluorescence) was 0.137. To TGACAGCCTGTA belongs 0.209; to TGATTCTTTGTA, -0.0833. The value for TGAACGGCGGTA was 0.00993; that for CTACACGTGGTA was 0.805; that for TGATCACTCGTA was 0.0786. The value for TGATACGAAGTA was -0.107. As for TGAGATCGTGTA, the binding signal (log2 normalized fluorescence) was 0.266.

As for TGACAGATGGTA, the binding signal (log2 normalized fluorescence) was 0.349. To TGATCAGGAGTA belongs 0.15; to TGATCCTGGGTA, -0.0658.

On to TGATCATGTGTA, for which the binding signal (log2 normalized fluorescence) was 0.498. TGATAATGCGTA: the binding signal (log2 normalized fluorescence) was determined as 0.153. With TGGTACGTGGTA, the binding signal (log2 normalized fluorescence) came to 0.386.

Source of the values: article PMC5515408.
